# In the supplement of paper PMC10037445:
# The full ranking holds about 2,900 compounds; the median of “IRF Lucia reporter activity, fold change vs agonist alone” is about 0.9, and the highest 2% start at about 2.8. This is one part of the list.
# Columns and labels:
# RAW-Dual [1] = assay: IRF Lucia reporter activity, fold change vs agonist alone; higher = enhanced IRF activity; settings: agonist: MPLA (TLR4) […]
# In short: (§1)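 Supernatant from RAW-Dual macrophages was read after 20 hours for IRF by QuantiLuc luminescence and for NF-κB by QuantiBlue absorbance at 620 nm. The cells (50,000 cells/well in DMEM, 384-well plates, 37 °C, 5% CO2) had received 50 nL of library stock by pin tool and, 1 h later, a PRR agonist. Reporter activity is expressed relative to agonist-alone wells as fold change, and wells were flagged cytotoxic if IncuCyte confluency was under 70% of agonist controls in both mask sets.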
# RAW-Dual [2] = assay: IRF Lucia reporter activity, fold change vs agonist alone; cytotoxicity flag (confluency mask): not cytotoxic; higher = enhanced IRF activity
# In short: as §1
# RAW-Dual [3] = assay: IRF Lucia reporter activity, fold change vs agonist alone; cytotoxicity flag (confluency mask): cytotoxic (confluency <70% of control); higher = enhanced IRF activity
# In short: as §1
# [4] = library stock concentration (final ~1000-fold dilution): 10 mM, cytotoxicity flag (confluency mask): not cytotoxic
# [5] = agonist: 3'3'-cGAMP (STING) 10 ug/mL
smiles,measurement,setting,value
COc1ccccc1C(=O)Nc1cc2c(cc1N1CCCCC1)n(C)c(=O)n2C,IRF Lucia reporter activity,RAW-Dual [1]; [4],0.915
COc1ccccc1C(=O)Nc1cc2c(cc1N1CCCCC1)n(C)c(=O)n2C (library stock concentration (final ~1000-fold dilution): 10 mM),IRF Lucia reporter activity,RAW-Dual [2]; [5],0.77
same,IRF Lucia reporter activity,RAW-Dual [2]; agonist: LPS (TLR4) 0.1 ug/mL,0.621
O=C1Nc2ccc(CN3C(=O)CSC3=O)cc2/C1=C/c1cc(CN2CCOCC2)c[nH]1 (library stock concentration (final ~1000-fold dilution): 10 mM),IRF Lucia reporter activity,RAW-Dual [2]; [5],0.227
same,IRF Lucia reporter activity,RAW-Dual [2]; agonist: LPS (TLR4) 0.1 ug/mL,0.666
CN1CCN(C(=O)c2ccc(-c3ccc4c(C=O)c(O)ccc4c3)s2)CC1 (library stock concentration (final ~1000-fold dilution): 10 mM),IRF Lucia reporter activity,RAW-Dual [2]; [5],0.228
same,IRF Lucia reporter activity,RAW-Dual [2]; agonist: LPS (TLR4) 0.1 ug/mL,0.45
COc1ccc2c(Nc3cc(NC(=O)c4cccc(C(C)(C)C#N)c4)ccc3C)ncnc2c1 (library stock concentration (final ~1000-fold dilution): 10 mM),IRF Lucia reporter activity,RAW-Dual [2]; [5],0.117
same,IRF Lucia reporter activity,RAW-Dual [2]; agonist: LPS (TLR4) 0.1 ug/mL,0.481
COC(=O)c1cc(O)c(O)c(O)c1 (library stock concentration (final ~1000-fold dilution): 10 mM),IRF Lucia reporter activity,RAW-Dual [2]; [5],0.299
same,IRF Lucia reporter activity,RAW-Dual [2]; agonist: LPS (TLR4) 0.1 ug/mL,0.817
CCc1cnn2c(NCc3ccc[n+]([O-])c3)cc(N3CCCCC3CCO)nc12 (centres undefined) (library stock concentration (final ~1000-fold dilution): 10 mM),IRF Lucia reporter activity,RAW-Dual [3]; [5],0.015
same,IRF Lucia reporter activity,RAW-Dual [3]; agonist: LPS (TLR4) 0.1 ug/mL,0.0211
CCc1cnn2c(NCc3ccc[n+]([O-])c3)cc(N3CCCCC3CCO)nc12 (centres undefined),IRF Lucia reporter activity,"RAW-Dual [1]; library stock concentration (final ~1000-fold dilution): 10 mM, cytotoxicity flag (confluency mask): cytotoxic (confluency <70% of control)",0.0249
N#Cc1ccc(-c2c(-c3ncn[nH]3)sc(N3CCOCC3)c2C#N)c(F)c1 (library stock concentration (final ~1000-fold dilution): 10 mM),IRF Lucia reporter activity,RAW-Dual [2]; [5],0.455
same,IRF Lucia reporter activity,RAW-Dual [2]; agonist: LPS (TLR4) 0.1 ug/mL,10.2
Cc1ccc([N+](=O)[O-])cc1S(=O)(=O)N(C)/N=C/c1cnc2ccc(Br)cn12.Cl,IRF Lucia reporter activity,"RAW-Dual [1]; library stock concentration (final ~1000-fold dilution): 2 mM, cytotoxicity flag (confluency mask): cytotoxic (confluency <70% of control)",0.927
Cc1ccc([N+](=O)[O-])cc1S(=O)(=O)N(C)/N=C/c1cnc2ccc(Br)cn12.Cl (library stock concentration (final ~1000-fold dilution): 2 mM),IRF Lucia reporter activity,RAW-Dual [3]; [5],0.0223
same,IRF Lucia reporter activity,RAW-Dual [3]; agonist: LPS (TLR4) 0.1 ug/mL,0.0233
Cc1cccc(CN2CCN(C(c3ccccc3)c3ccc(Cl)cc3)CC2)c1.Cl.Cl (centres undefined),IRF Lucia reporter activity,"RAW-Dual [1]; library stock concentration (final ~1000-fold dilution): 2 mM, cytotoxicity flag (confluency mask): not cytotoxic",1.34
Cc1cccc(CN2CCN(C(c3ccccc3)c3ccc(Cl)cc3)CC2)c1.Cl.Cl (centres undefined) (library stock concentration (final ~1000-fold dilution): 2 mM),IRF Lucia reporter activity,RAW-Dual [2]; [5],0.843
same,IRF Lucia reporter activity,RAW-Dual [2]; agonist: LPS (TLR4) 0.1 ug/mL,0.869
CC(C)CC(NC(=O)C(NC(=O)c1cccc(-c2ccccc2)n1)C(C)O)B(O)O (centres undefined),IRF Lucia reporter activity,RAW-Dual [1]; [4],2.38
CC(C)CC(NC(=O)C(NC(=O)c1cccc(-c2ccccc2)n1)C(C)O)B(O)O (centres undefined) (library stock concentration (final ~1000-fold dilution): 10 mM),IRF Lucia reporter activity,RAW-Dual [2]; [5],0.502
same,IRF Lucia reporter activity,RAW-Dual [2]; agonist: LPS (TLR4) 0.1 ug/mL,2.55
COC(=O)C(c1ccccc1Cl)N1CCc2sccc2C1.O=S(=O)(O)O (centres undefined),IRF Lucia reporter activity,RAW-Dual [1]; [4],1.05
COC(=O)C(c1ccccc1Cl)N1CCc2sccc2C1.O=S(=O)(O)O (centres undefined) (library stock concentration (final ~1000-fold dilution): 10 mM),IRF Lucia reporter activity,RAW-Dual [2]; [5],1.02
same,IRF Lucia reporter activity,RAW-Dual [2]; agonist: LPS (TLR4) 0.1 ug/mL,1.23
CC(NC(=O)C(=O)Nc1ccccc1C(C)(C)C)C(=O)NC(CC(=O)O)C(=O)COc1c(F)c(F)cc(F)c1F (centres undefined) (library stock concentration (final ~1000-fold dilution): 10 mM),IRF Lucia reporter activity,RAW-Dual [2]; [5],1
same,IRF Lucia reporter activity,RAW-Dual [2]; agonist: LPS (TLR4) 0.1 ug/mL,0.3
COc1cc(Nc2ncc(F)c(Nc3ccc4c(n3)NC(=O)C(C)(C)O4)n2)cc(OC)c1OC.O=S(=O)(O)c1ccccc1,IRF Lucia reporter activity,RAW-Dual [1]; [4],1.12
COc1cc(Nc2ncc(F)c(Nc3ccc4c(n3)NC(=O)C(C)(C)O4)n2)cc(OC)c1OC.O=S(=O)(O)c1ccccc1 (library stock concentration (final ~1000-fold dilution): 10 mM),IRF Lucia reporter activity,RAW-Dual [2]; [5],1.07
same,IRF Lucia reporter activity,RAW-Dual [2]; agonist: LPS (TLR4) 0.1 ug/mL,0.0315
O=C(c1cccc(Br)c1)N1CCC(N2CCCC2)CC1,IRF Lucia reporter activity,RAW-Dual [1]; [4],1.01
O=C(c1cccc(Br)c1)N1CCC(N2CCCC2)CC1 (library stock concentration (final ~1000-fold dilution): 10 mM),IRF Lucia reporter activity,RAW-Dual [2]; [5],1.03
same,IRF Lucia reporter activity,RAW-Dual [2]; agonist: LPS (TLR4) 0.1 ug/mL,1.14
C/C=C(/C)C(=O)OC1C(OC(C)=O)c2c(ccc3ccc(=O)oc23)OC1(C)C (centres undefined) (library stock concentration (final ~1000-fold dilution): 10 mM),IRF Lucia reporter activity,RAW-Dual [2]; [5],1.12
same,IRF Lucia reporter activity,RAW-Dual [2]; agonist: LPS (TLR4) 0.1 ug/mL,1.06
CC(=O)Nc1cccc2c1c(Sc1ccc(Cl)cc1)c(C)n2CC(=O)O,IRF Lucia reporter activity,RAW-Dual [1]; [4],0.997
CC(=O)Nc1cccc2c1c(Sc1ccc(Cl)cc1)c(C)n2CC(=O)O (library stock concentration (final ~1000-fold dilution): 10 mM),IRF Lucia reporter activity,RAW-Dual [2]; [5],0.901
same,IRF Lucia reporter activity,RAW-Dual [2]; agonist: LPS (TLR4) 0.1 ug/mL,0.855
COS(=O)(=O)[O-].C[N+]1(C)CCC(=C(c2ccccc2)c2ccccc2)CC1,IRF Lucia reporter activity,RAW-Dual [1]; [4],1.15
COS(=O)(=O)[O-].C[N+]1(C)CCC(=C(c2ccccc2)c2ccccc2)CC1 (library stock concentration (final ~1000-fold dilution): 10 mM),IRF Lucia reporter activity,RAW-Dual [2]; [5],1.13
same,IRF Lucia reporter activity,RAW-Dual [2]; agonist: LPS (TLR4) 0.1 ug/mL,1.3
